According to publication PMC4336329 (PLoS ONE, 2015):
Out of some 310,000 compounds screened, about 2,200 (0.71%) showed an effect of 50% or more. The effect is printed as a negative number. Some of the results follow.

Target: human ether-à-go-go-related gene (hERG) potassium channel (human, UniProt Q12809)
Experiment: primary screen, population patch clamp on CHO cells stably expressing hERG

human ether-à-go-go-related gene (hERG) potassium channel, sequence (Q12809 whole entry, looked up): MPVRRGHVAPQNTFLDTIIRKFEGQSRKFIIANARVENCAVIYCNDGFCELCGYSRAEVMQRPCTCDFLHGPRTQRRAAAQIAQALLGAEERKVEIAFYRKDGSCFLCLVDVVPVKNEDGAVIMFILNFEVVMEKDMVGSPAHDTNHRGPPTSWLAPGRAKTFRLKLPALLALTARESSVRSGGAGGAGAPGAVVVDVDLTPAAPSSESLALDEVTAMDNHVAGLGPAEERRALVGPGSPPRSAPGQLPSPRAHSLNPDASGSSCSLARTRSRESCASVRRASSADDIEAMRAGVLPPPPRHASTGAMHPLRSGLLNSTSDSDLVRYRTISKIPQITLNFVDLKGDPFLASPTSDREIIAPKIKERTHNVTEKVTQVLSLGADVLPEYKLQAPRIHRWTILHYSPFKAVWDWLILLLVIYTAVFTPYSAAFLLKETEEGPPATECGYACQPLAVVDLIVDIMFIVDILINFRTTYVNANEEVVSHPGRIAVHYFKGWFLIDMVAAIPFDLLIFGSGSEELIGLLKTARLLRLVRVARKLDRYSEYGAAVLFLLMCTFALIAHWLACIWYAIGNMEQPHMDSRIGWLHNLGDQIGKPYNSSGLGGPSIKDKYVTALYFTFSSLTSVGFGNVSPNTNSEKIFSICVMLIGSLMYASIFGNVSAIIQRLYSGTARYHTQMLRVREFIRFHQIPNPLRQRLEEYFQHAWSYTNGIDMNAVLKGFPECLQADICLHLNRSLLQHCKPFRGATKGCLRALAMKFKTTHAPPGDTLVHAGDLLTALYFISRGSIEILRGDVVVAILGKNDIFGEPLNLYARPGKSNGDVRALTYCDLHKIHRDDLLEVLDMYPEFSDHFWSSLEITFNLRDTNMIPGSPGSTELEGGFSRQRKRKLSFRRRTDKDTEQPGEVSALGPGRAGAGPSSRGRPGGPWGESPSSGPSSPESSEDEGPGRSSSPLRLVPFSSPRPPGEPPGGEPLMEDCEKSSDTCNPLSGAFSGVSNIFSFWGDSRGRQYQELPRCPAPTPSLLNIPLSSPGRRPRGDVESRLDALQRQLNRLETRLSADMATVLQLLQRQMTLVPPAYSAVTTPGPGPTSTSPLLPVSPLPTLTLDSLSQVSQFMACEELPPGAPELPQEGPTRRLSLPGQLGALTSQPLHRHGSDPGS

| SMILES | hERG current change (%, negative = inhibition) at 1uM [%] |
| --- | --- |
| Cc1cc(C)n2nc(C(=O)OCC(=O)N(C)C3CCCCC3)nc2n1 | 16.5 |
| CCN(CC)S(=O)(=O)c1cc(NC(=O)C2=COCCO2)ccc1Cl | 8.54 |
| O=C(O)CCN(Cc1ccccc1)S(=O)(=O)c1ccc(Cl)cc1F | 3.17 |
| COc1ccc(OC)c(NC(=O)C23CC4CC(C2)CC(n2cnc(Br)n2)(C4)C3)c1 | -11 |
| Cc1cccc(NC(=S)N/N=C2/CCCCc3ccccc32)c1 | 17 |
| Cc1ccc(C)c(NC(=S)NNC(=O)c2csc(C(C)C)c2)c1 | 0.742 |
| CC(C)(C)c1ccc(S(=O)(=O)NCc2ccc(C(=O)N3CCOCC3)cc2)cc1 | 4.31 |
| CNC(=O)c1[nH]cnc1C(=O)Nc1cccc(OC)c1 | 10.2 |
| c1ccc(CNc2ncnc3nc[nH]c23)cc1 | 2.05 |
| COc1ccc(C(=O)Nc2ccnc(-c3cccnc3)n2)cc1 | 6.62 |
| O=c1cc(-c2c(F)c(F)c(F)c(F)c2F)oc2ccccc12 | 15.7 |
| O=C(O)C=C(Br)Br | 7.58 |
| O=C1CN(C(=O)c2cccc([N+](=O)[O-])c2)CC(=O)N1 | 12 |
| Cn1c(NC(=O)/C=C/c2ccccc2)cc(=O)n(C)c1=O | 2 |
| Cc1ccc(S(=O)(=O)N2CCOCC2)cc1C(=O)N1CCCCCC1 | 0.103 |
| Cc1cc(=O)oc2cc3c(cc12)OCO3 | 11.8 |
| COc1ccccc1N1CC(C(=O)Nc2ccc(N3CCOCC3)cc2)CC1=O (centres unmarked) | 12.1 |
| Nc1nc(N)nc(-c2cccc(Cl)c2)n1 | 8.43 |
| CCCCn1c(N)c(N(CCOC)C(=O)CC(NC(=O)c2ccccc2)c2ccccc2)c(=O)[nH]c1=O (centres unmarked) | 0.82 |
| COc1cc2c(cc1OC)C(C)N(C(=O)c1cccs1)CC2 (centres unmarked) | 3.9 |
| Cc1ccc(S(=O)(=O)N2CCN(C(=O)CSc3nnc(C)s3)C2)cc1 | 8.98 |
| Nc1nnnn1/N=C/c1ccc(Br)cc1 | 16.7 |

| SMILES | hERG current change (%, negative = inhibition) at 1uM [%] |
| --- | --- |
| O=C(CSc1nnc(CNc2ccc(Cl)cc2)n1Cc1ccccc1)NCc1ccco1 | -1.71 |
| CN1CCN(C(=O)c2ccc(COc3cc(Cl)ccc3Cl)o2)CC1 | -6.31 |
| COc1ccc(C2Nc3ccccc3C(=O)N2c2ccccc2)cc1Cn1cc([N+](=O)[O-])cn1 (centres unmarked) | -11.7 |
| CCOC(=O)[C@H]1[C@H]2COc3ccc(OC)cc3[C@@H]2N2C(=O)c3ccc(F)cc3NC(=O)[C@@]12C | 11.1 |
| COc1ccccc1/C=C(/C(=O)NCCCn1ccnc1)c1ccccc1 | 2.39 |
| O=C(Cn1c2c(sc1=O)C1c3ccccc3OCC1CS2)Nc1ccc(Cl)c(Cl)c1 (centres unmarked) | 11.2 |
| COc1ccc2nc3ccccc3nc2c1NC(=O)c1ccc(Br)cc1 | 9.67 |
| COc1ccc(C(=O)NCCc2cc3ccc(C)c(C)c3[nH]c2=O)cc1OC | -5.3 |
| CCOC(=O)C1=C(O)C(=O)N(C2CCCCC2)C1 | 8.72 |
| CCn1ccc(C(=O)Nc2ncc(C)s2)n1 | 5.86 |
| COc1ccc(CN(CC(=O)NC2CCCC2)C(=O)CN2C(=O)COc3ccccc32)cc1 | -25.7 |
| CC(Oc1ccc2c(-c3ccccc3)cc(=O)oc2c1)C(=O)N1CCC[C@@H]1C(N)=O (some centres unmarked) | 4.5 |
| CN1C(=O)C(O)N=C(c2ccccc2)c2ccccc21 (centres unmarked) | 3.74 |
| CC(=O)Nc1ccc(S(=O)(=O)N2CCC(C(=O)O)CC2)cc1 | 17.1 |
| COC(=O)c1ccc(NC(=O)C2CC3CCC2C3)cc1 (centres unmarked) | 8.97 |
| CCOC(=O)C1=C(N)OC2=C(C(=O)CCC2)C12C(=O)Nc1ccccc12 (centres unmarked) | 6.93 |
| CCOC(=O)c1c(NC(=O)CSc2nnc(C)s2)sc2c1CCC(CC)C2 (centres unmarked) | 10.2 |
| CCn1c(=O)c(=O)n(CC)c2cc(S(=O)(=O)N3CCc4ccccc43)ccc21 | -6.87 |
| O=C(C[n+]1cccc(Br)c1)c1ccccc1.[Br-] | 15.1 |
| CSc1ccc(/C=N/NC(=O)CN2CCN(Cc3ccc(Cl)cc3)CC2)cc1 | 2.29 |
| O=C(Oc1cccc(-n2cnnn2)c1)c1ccco1 | 7.81 |
| Clc1nc2ccccc2cc1-c1nnn(-c2ccccc2Br)n1 | 0.846 |
